From PubChem BioAssay AID1240 (Sanford-Burnham Center for Chemical Genomics, 2008)
Out of some 50,000 compounds screened, about 800 (1.6%) showed an effect of 50% or more. Some of the results follow.

Each molecule was assayed against Bcl-2-like protein 10 (Homo sapiens) (UniProt Q9HD36) (assay: TR3 peptide-Bcl-B binding displacers, biochemical primary FP assay, phenotype converters (AID 1240;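 also: 0% = Bcl-B with tracer peptide and DMSO and 100% = tracer peptide lacking Bcl-B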)). Settings: GST-Bcl-B / FITC-TR3 peptide fluorescence polarization; stronger effect = higher value; compound at 3.75 mg/L.
UniProt Q9HD36, sequence (Q9HD36 whole entry, looked up): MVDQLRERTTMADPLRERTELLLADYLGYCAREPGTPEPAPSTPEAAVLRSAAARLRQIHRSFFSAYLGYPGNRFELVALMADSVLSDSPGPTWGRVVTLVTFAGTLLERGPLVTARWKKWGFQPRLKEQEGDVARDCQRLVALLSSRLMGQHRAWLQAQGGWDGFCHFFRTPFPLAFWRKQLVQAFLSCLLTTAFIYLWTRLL

SMILES	displacement [%]
O=C(NC(=S)Nc1nc(-c2ccccc2)cs1)c1ccccc1Cl	8.4
COc1ccc(NC(NC(=O)c2ccco2)C(=O)c2ccccc2)cc1 (stereo not given)	13.2
Cc1ccc(OCC(=O)Nc2ccc(-c3nc4ccccc4o3)cc2)cc1C	-10.9
Brc1cccc(CN2CCN(C3CCCC3)CC2)c1	-15.8
Cc1cc(=O)n2c([nH]c3ccccc32)c1C(=O)O	14.1
CC1=CC(C)C2(CO)COC(c3ccc4c(c3)OCO4)C1C2C (stereo not given)	5.7
Cc1ccc(Cc2ccccc2C(=O)O)cc1Cl	6.3
O=C(N/N=C/c1cccs1)c1cc(-c2ccc(Cl)cc2)n[nH]1	0.8
CC(C)(O)C#Cc1ccc(C(=O)NCc2ccccc2)cc1	-2.3
CC(Oc1cccc(Cl)c1)C(=O)Nc1ccccc1C(=O)N1CCCCCC1 (stereo not given)	-3.8
CCCC(C)NS(=O)(=O)c1c(C)cc(C)cc1C (stereo not given)	13.2
CC1=C(C(=O)c2ccccc2)C(c2ccccc2)NC(=O)N1 (stereo not given)	32.7
COc1cc(OC)cc(C(=O)N2CCN(Cc3ccncc3)CC2)c1	2.3
COc1ccc(NC(=O)C2CCCN(CCCc3ccccc3)C2)cc1OC1CCCC1 (stereo not given)	-6
O=C(/C=C/c1ccco1)Nc1ccc(Br)cn1	11.4
O=S(=O)(Nc1nc2ccccc2nc1N1CCCCC1)c1ccccc1	15.9
N#Cc1cc(C#N)c(SCC(=O)Nc2nccs2)nc1N	-4
O=C(COc1ccccc1)N1CCN(C(=O)c2ccccc2F)CC1	-21.7
CC(C)(C)c1cc(Br)ccc1OCC(=O)Nc1ccc2c(c1)OCCO2	4
Cc1cccc2c(N=NC(=O)c3ccc(Br)cc3)c(O)n(C)c12	11.9
COc1cc(C=C2C(=O)c3ccccc3C2=O)ccc1Oc1ccc([N+](=O)[O-])cn1	3.8
CCN(CC)C(=O)c1sc(NC(=O)c2cc(Cl)ccc2OC)c(C#N)c1C	4.7

SMILES	displacement [%]
COc1cc(C=C2C(=O)N(C)C(=O)N(C)C2=O)ccc1OCc1ccc([N+](=O)[O-])cc1	-3.1
CCOS(=O)(=O)/C=C/c1ccccc1	2.2
CC1CCCN(C(=O)c2ccccc2NC(=O)c2ccc(Cl)cc2)C1 (stereo not given)	-4.5
CCn1nnnc1-c1ccc(OC)c(S(=O)(=O)NCc2ccccc2)c1	2.5
COc1ccc(CN2CCN(Cc3ccncc3)CC2)cc1	4.3
Cc1nnc(NC(=O)COc2ccccc2)s1	-3.6
Cc1nonc1OCCCNc1ccc([N+](=O)[O-])cc1Cl	12.4
O=C(c1ccccc1Br)N1CCN(c2ccc(Cl)cc2[N+](=O)[O-])CC1	-10.8
CCOC(=O)/C=C(\C)N1N=C(c2ccccc2)CC1c1cccc([N+](=O)[O-])c1 (stereo not given)	-5.7
CC1=NN(c2ccccc2)C(=O)/C1=C\c1ccc(O)cc1	4.3
CCc1ccccc1NC(=O)c1cc2cc(Br)ccc2oc1=O	2.8
CCOc1ccc(N/C=C2\CCCCC2=O)c([N+](=O)[O-])c1	-6
COc1ccc(C2Nc3ccccc3C(=O)N2c2ccccc2)cc1COc1ccccn1 (stereo not given)	7.5
CCCCNCCCCOc1ccc(C)cc1	7.5
COc1ccccc1NC(=O)C1=C(C)NC(=O)NC1c1cccs1 (stereo not given)	-17.5
CCc1ccc(N2C(=O)/C(=C/c3ccc(O)c(Cl)c3)C(=O)NC2=S)cc1	2.8
O=C(N/N=C/c1ccc(C(=O)O)cc1)C(=O)NC1CCCCC1	6.6
CCOc1cccc(N2C(=O)CC(N3CCN(C)CC3)C2=O)c1 (stereo not given)	-6.2
O=C(CNc1ccc(Cl)cc1)c1ccc(Br)cc1	0.2
Brc1cc2c(cc1/C=N/Nc1ccccc1)OCO2	-7.3
CN1C(=O)/C(=C\c2cn(CCOc3ccc(Br)cc3)c3ccccc23)SC1=S	3.5
C=CCNC(=O)c1ccc(C(C)(C)C)cc1	3.8

SMILES	displacement [%]
COc1ccc(OC)c(NC(=S)NC(NC(=O)c2ccccc2Cl)C(Cl)(Cl)Cl)c1 (stereo not given)	-0.4
O=C(CN1CCN(CCN2C(=O)c3cccc4cccc(c34)C2=O)CC1)c1ccccc1	15.6
Cc1ccccc1/C=C1\C(=O)NC(=S)N(c2cccc(Br)c2)C1=O	13.2
O=c1c2ccccc2nc(-c2ccccc2)n1CCCn1ccnc1	0.5
O=Cc1[nH]c2ccccc2c1Nc1ccc([N+](=O)[O-])cc1	-2.7
COc1ccccc1/C=C1\C(=O)NC(=O)N(C(C)(C)C)C1=O	-6
CC(C)c1ccccc1NS(=O)(=O)c1ccccc1[N+](=O)[O-]	-3.6
NC(=O)c1ccc(NC(=O)Nc2cccc3ccccc23)cc1	18.6
COc1cccc(NC(=O)c2ccc(-c3ccccc3)cc2)c1	8.2
COc1cc(C(=O)Nc2c(C)cccc2C(=O)O)cc(OC)c1OC	7
O=C(Nc1cc(C(F)(F)F)ccc1Cl)c1nn2c(c1Br)NC(c1ccccc1)CC2C(F)(F)F (stereo not given)	8.1
COc1ccc2c(c1OC)C(=O)N(c1cccc(Cl)c1)C2=O	-23.7
O=C(Nc1ccc([N+](=O)[O-])cc1)c1cc2ccccc2o1	3.5
COC(=O)C1=C(C)NC2=C(C(=O)CC(c3ccc(OC)c(OC)c3)C2)C1c1ccccc1OCc1ccccc1 (stereo not given)	12.2
Cc1ccc(Sc2ccc(/C=C3/SC(=S)N(C)C3=O)o2)cc1	3.3
Cc1ccc(C)c(OCc2nnc(NC(=O)c3ccccc3)s2)c1	-10.9
COc1ccc(N(CC(=O)NCC(C)C)S(C)(=O)=O)cc1Cl	-9.2
O=C(Nc1ccc[n+](CC(=O)c2cc3ccccc3oc2=O)c1)c1ccccc1	16.9
CC1C(C(=O)N(C=O)c2cccc([N+](=O)[O-])c2)C2C=CC1C21CC1 (stereo not given)	0
COc1cc(C(=O)n2nnc3ccccc32)c([N+](=O)[O-])cc1OC	-9.7
COc1ccc(NC(=O)CCN2C(=O)/C(=C\c3cccc(OC)c3)SC2=S)cc1	-5.5
CCCCOc1ccc(N2C(=O)c3cccc4cccc(c34)C2=O)cc1	0.2

SMILES	displacement [%]
O=C(CSc1nc2ccc([N+](=O)[O-])cc2s1)Nc1ccccc1[N+](=O)[O-]	3
CCOc1ccccc1N1CCN(C(=O)Nc2ccc(Cl)c(Cl)c2)CC1	-8.9
Cc1ccc(S(=O)(=O)n2cc(C=C3C(=O)NC(=S)NC3=O)c3ccccc32)cc1	19.9
O=C(N/N=C/c1ccc(O)c(O)c1)NC12CC3CC(CC(C3)C1)C2	7.9
CCCC(C)NC(=O)Cc1ccccc1 (stereo not given)	6.1
CCCc1c(C)nc2c(Cl)cccc2c1SCC(=O)O	-1.7
O=C1NCCN/C1=C\C(=O)c1cccc(Br)c1	-1.5
Cc1cc(C)cc(NC(=O)C(=O)NCc2ccncc2)c1	11.7
O=C(c1ccc(F)cc1F)N1CCN(c2cc(N3CCOCC3)c(F)cc2[N+](=O)[O-])CC1	-0.4
COc1cc(C(=O)N2CCCc3ccccc32)c([N+](=O)[O-])cc1OC	12.3
CCOC(=O)c1cnc2cc(-c3ccc(Br)cc3)nn2c1N	-1.8
CCOc1ccc(S(=O)(=O)N(CC(=O)Nc2cccc(Cl)c2C)c2ccc(C)cc2)cc1	1.6
Oc1cccc(Nc2nc(-c3ccc(Br)cc3)cs2)c1	10.4
Cc1ccc(S(=O)(=O)C(NC(=O)c2ccccc2)=C(Cl)Cl)cc1	-6
Cc1ccc(S(=O)(=O)N2CCN(S(=O)(=O)c3ccc(C)cc3)C3OCCOC32)cc1 (stereo not given)	-0.9
CCOc1cc(C2Nc3ccccc3NC3=C2C(=O)CC(c2ccc(OC)cc2)C3)ccc1OC(C)=O (stereo not given)	-7.6
CC(C)C(=O)Nc1ccc(Br)cc1C(=O)O	11.6
CCOc1ccc(N2C(=O)CC(C(C)c3ccccc3)C2=O)cc1 (stereo not given)	1.1
CCN(CC)c1ccc(/C=N/n2c(C)nnc2C)cc1	-10.7
c1coc(CNc2nc(N3CCOCC3)nc(N3CCOCC3)n2)c1	-1.4
CCOC(=O)C1=C(C)N=c2s/c(=C\c3cccs3)c(=O)n2C1c1ccc(SC)cc1 (stereo not given)	32.3
CCCCc1c(C)nc2ccc(OC)cc2c1SCC(=O)O	-9.1

SMILES	displacement [%]
CCn1c(=O)c(C(=O)Nc2cccc(O)c2)c(O)c2ccccc21	10.6
O=C(CCNc1ccc2ccccc2c1)c1ccc([N+](=O)[O-])cc1	3
O=c1[nH]c(N2CCOCC2)nc2ncn(Cc3ccccc3)c12	1.6
CCOc1cc(C(=O)N2CCCC2)cc(OCC)c1OCC	-4.4
O=C(O)CCCCC(=O)NC1=NCCS1	-0.3
COCCOC(=O)C1=C(C)NC(=O)NC1c1ccc(Br)cc1 (stereo not given)	1.2
COc1ccc(C(=O)N2c3cc(C)ccc3C(Nc3ccc(C)cc3)CC2C)cc1 (stereo not given)	-2.3
Cc1ccc(S(=O)(=O)Nc2ccccc2C(O)C[N+](=O)[O-])cc1 (stereo not given)	-4.2
Cc1ccc(NC(=S)NC(=O)/C=C/c2ccccc2)cc1NC(=O)c1ccccc1	16.8
O=C(c1cc(N2CCOCC2)c(F)cc1[N+](=O)[O-])N1CCOCC1	8.3
Cc1ccc(C(C)C)c(OCc2nnc(NC(=O)c3ccc(Cl)cc3Cl)s2)c1	-9.3
Oc1ccc(Cl)cc1-c1cc(-c2ccc(Br)cc2)n[nH]1	-3.2
Cc1ccc(OCc2nnc(NC(=O)c3cccs3)s2)cc1	4.5
CN1C(=O)N(C)C(NC(=O)NC(C)(C)C)C1NC(=O)NC(C)(C)C (stereo not given)	14.5
Cc1cc(C23CC4CC(CC(C(=O)O)(C4)C2)C3)c(C)cc1C12CC3CC(CC(C(=O)O)(C3)C1)C2	-6.7
CC(C)c1ccc(NC(=O)C2COc3ccccc3O2)cc1 (stereo not given)	2.2
Cc1ccc(-c2nc3ccccc3o2)cc1NC(=O)COc1ccc(Cl)cc1	-8.5
COc1ccc(CNc2ccc3c(c2)nc(C)n3C)cc1OC	0.9
Cc1cc(C=C2C(=O)c3ccccc3C2=O)c(C)n1-c1ccc(N2CCOCC2)cc1	0.7
O=C(c1ccccc1F)N1CCN(Cc2ccccc2Cl)CC1	-12.8
COC(=O)c1ccccc1NC(=O)COc1cc(C)ccc1C(C)C	3
O=C(COc1ccc(Cl)cc1)N1CCN(C(=O)c2ccc(F)cc2)CC1	-3.3
